The text below walks through data of the supplement of paper PMC12217912.

This is one part of the list. The full chains were built here from the parent and the listed change. Values near 0.05 are background.

B1: TEV protease; numbered along this chain (parent)
chain: MGESLFKGPRDYNPISSSICHLTNESDGHTTSLYGIGFGPFIITNKHLFRRNNGTLVVQSLHGVFKVKDTTTLQQHLVDGRDMIIIRMPKDFPPFPQKLKFREPQREERICLVTTNFQTKSMSSMVSDTSCTFPSGDGIFWKHWIQTKDGQCGSPLVSTRDGFIVGIHSASNFTNTNNYFTSVPKNFMELLTNQEAQQWVSGWRLNADSVLWGGHKVFMVKPEEPFQPVKEATQL

The variants in the experiment derive from B1. The experiment in a line: raw area under fraction-flipped curve 0-4 h after induction (AUC4h, not background-subtracted), DNA-recorder readout of cleavage of the substrate (dimensionless); higher = more cleavage of the substrate by the protease variant. The conditions noted are these: temperature: 34 °C; time window: 0-4 h after rhamnose induction. The method, then:
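In vivo DNA recorder in E. coli TOP10(DE3) ΔrhaA at 34 °C. Each TEVp single-site mutant (parent TEVp 0) is paired with a single-site variant of the 7-mer TEVs (canonical ENLYFQ|S). The substrate sits between flexible linkers in a Bxb1-sfGFP-TEVs-SsrA fusion, so cleavage stabilises Bxb1 and speeds flipping of a recombination array, read by NGS. The value is the raw area under the fraction-flipped curve over 0-4 h after rhamnose induction (AUC4h), with ≥20 reads per time point. It is not background-subtracted; inactive controls average about 0.047.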
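Note: Bxb1 expression induced with 0.2% (w/v) L-rhamnose at OD600 near 0.5, cultures sampled hourly, flipped fraction per protease–substrate barcode pair counted by paired-end Illumina sequencing.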

For MGESLFKGPRDYNPISSSICHLTNESDGHTTSLYGIGFGPFIITNKHLFRRNNGTLVHQSLHGVFKVKDTTTLQQHLVDGRDMIIIRMPKDFPPFPQKLKFREPQREERICLVTTNFQTKSMSSMVSDTSCTFPSGDGIFWKHWIQTKDGQCGSPLVSTRDGFIVGIHSASNFTNTNNYFTSVPKNFMELLTNQEAQQWVSGWRLNADSVLWGGHKVFMVKPEEPFQPVKEATQL [V58H], the “area with substrate CNLYFQS” value turned out to be 0.0494, the “area with substrate HNLYFQS” value turned out to be 0.0452, the “area with substrate MNLYFQS” value amounted to 0.0449 and the “area with substrate NNLYFQS” value came to 0.055. Moreover, the “area with substrate WNLYFQS” value amounted to 0.0386.
Regarding MGESLFKGPRDYNPISSSICHLTNESDGHTTSLYGIGFGPFIITNKHLFRRNNGTLVNQSLHGVFKVKDTTTLQQHLVDGRDMIIIRMPKDFPPFPQKLKFREPQREERICLVTTNFQTKSMSSMVSDTSCTFPSGDGIFWKHWIQTKDGQCGSPLVSTRDGFIVGIHSASNFTNTNNYFTSVPKNFMELLTNQEAQQWVSGWRLNADSVLWGGHKVFMVKPEEPFQPVKEATQL [V58N], the “area with substrate CNLYFQS” value was found to be 0.0399, the “area with substrate FNLYFQS” value stood at 0.0519, the “area with substrate HNLYFQS” value turned out to be 0.0553 and the “area with substrate LNLYFQS” value stood at 0.0488. The “area with substrate TNLYFQS” value is 0.0546.
MGESLFKGPRDYNPISSSICHLTNESDGHTTSLYGIGFGPFIITNKHLFRRNNGTLVVQSRHGVFKVKDTTTLQQHLVDGRDMIIIRMPKDFPPFPQKLKFREPQREERICLVTTNFQTKSMSSMVSDTSCTFPSGDGIFWKHWIQTKDGQCGSPLVSTRDGFIVGIHSASNFTNTNNYFTSVPKNFMELLTNQEAQQWVSGWRLNADSVLWGGHKVFMVKPEEPFQPVKEATQL [L61R]: the “area with substrate CNLYFQS” value worked out at 0.0799, the “area with substrate FNLYFQS” value was found to be 0.101, the “area with substrate GNLYFQS” value is 0.0971 and the “area with substrate HNLYFQS” value was 0.0612. Besides, the “area with substrate INLYFQS” value was 0.0691, the “area with substrate KNLYFQS” value was found to be 0.0702, the “area with substrate LNLYFQS” value is 0.0695 and the “area with substrate SNLYFQS” value is 0.0835. Moreover, the “area with substrate TNLYFQS” value amounted to 0.0644, the “area with substrate VNLYFQS” value was 0.0739, the “area with substrate WNLYFQS” value worked out at 0.0562 and the “area with substrate YNLYFQS” value stood at 0.069.
As to MGESLFKGPRDYNPISSSICHLTNESDGHTTSLYGIGFGPFIITNKHLFRRNNGTLVVQSPHGVFKVKDTTTLQQHLVDGRDMIIIRMPKDFPPFPQKLKFREPQREERICLVTTNFQTKSMSSMVSDTSCTFPSGDGIFWKHWIQTKDGQCGSPLVSTRDGFIVGIHSASNFTNTNNYFTSVPKNFMELLTNQEAQQWVSGWRLNADSVLWGGHKVFMVKPEEPFQPVKEATQL [L61P], the “area with substrate CNLYFQS” value was determined as 0.0653, the “area with substrate GNLYFQS” value was found to be 0.0814, the “area with substrate HNLYFQS” value is 0.0618 and the “area with substrate INLYFQS” value amounted to 0.0266. In addition, the “area with substrate KNLYFQS” value was found to be 0.0816, the “area with substrate MNLYFQS” value came out at 0.0629, the “area with substrate PNLYFQS” value came to 0.0681 and the “area with substrate TNLYFQS” value stood at 0.109. Further, the “area with substrate VNLYFQS” value is 0.0716, the “area with substrate WNLYFQS” value stood at 0.0625 and the “area with substrate YNLYFQS” value worked out at 0.0677.
Regarding MGESLFKGPRDYNPISSSICHLTNESDGHTTSLYGIGFGPFIITNKHLFRRNNGTLVVQSLHGVFNVKDTTTLQQHLVDGRDMIIIRMPKDFPPFPQKLKFREPQREERICLVTTNFQTKSMSSMVSDTSCTFPSGDGIFWKHWIQTKDGQCGSPLVSTRDGFIVGIHSASNFTNTNNYFTSVPKNFMELLTNQEAQQWVSGWRLNADSVLWGGHKVFMVKPEEPFQPVKEATQL [K66N], the “area with substrate CNLYFQS” value was 0.0597, the “area with substrate FNLYFQS” value is 0.0703, the “area with substrate HNLYFQS” value came to 0.0355 and the “area with substrate PNLYFQS” value is 0.112. The “area with substrate SNLYFQS” value stood at 0.0589, the “area with substrate TNLYFQS” value was found to be 0.0611 and the “area with substrate WNLYFQS” value is 0.0491.
As for MGESLFKGPRDYNPISSSICHLTNESDGHTTSLYGIGFGPFIITNKHLFRRNNGTLVVQSLHGVFGVKDTTTLQQHLVDGRDMIIIRMPKDFPPFPQKLKFREPQREERICLVTTNFQTKSMSSMVSDTSCTFPSGDGIFWKHWIQTKDGQCGSPLVSTRDGFIVGIHSASNFTNTNNYFTSVPKNFMELLTNQEAQQWVSGWRLNADSVLWGGHKVFMVKPEEPFQPVKEATQL [K66G], the “area with substrate CNLYFQS” value came to 0.0568, the “area with substrate HNLYFQS” value turned out to be 0.0556, the “area with substrate INLYFQS” value was 0.0549 and the “area with substrate LNLYFQS” value stood at 0.0548. In addition, the “area with substrate MNLYFQS” value was found to be 0.0605, the “area with substrate NNLYFQS” value stood at 0.0782, the “area with substrate PNLYFQS” value came out at 0.058 and the “area with substrate TNLYFQS” value was determined as 0.0635. Further, the “area with substrate VNLYFQS” value stood at 0.0702, the “area with substrate WNLYFQS” value stood at 0.0544 and the “area with substrate YNLYFQS” value is 0.044.
Consider MGESLFKGPRDYNPISSSICHLTNESDGHTTSLYGIGFGPFIITNKHLFRRNNGTLVVQSLHGVDKVKDTTTLQQHLVDGRDMIIIRMPKDFPPFPQKLKFREPQREERICLVTTNFQTKSMSSMVSDTSCTFPSGDGIFWKHWIQTKDGQCGSPLVSTRDGFIVGIHSASNFTNTNNYFTSVPKNFMELLTNQEAQQWVSGWRLNADSVLWGGHKVFMVKPEEPFQPVKEATQL [F65D], for which the “area with substrate CNLYFQS” value was 0.0747, the “area with substrate HNLYFQS” value stood at 0.0601, the “area with substrate INLYFQS” value is 0.0554 and the “area with substrate LNLYFQS” value is 0.0606. In addition, the “area with substrate TNLYFQS” value was found to be 0.0564, the “area with substrate VNLYFQS” value was 0.0795 and the “area with substrate YNLYFQS” value worked out at 0.0557.
For MGESLFKGPRDYNPISSSICHLTNESDGHTTSLYGIGFGPFIITNKHLFRRNNGTLVVQSLHGVHKVKDTTTLQQHLVDGRDMIIIRMPKDFPPFPQKLKFREPQREERICLVTTNFQTKSMSSMVSDTSCTFPSGDGIFWKHWIQTKDGQCGSPLVSTRDGFIVGIHSASNFTNTNNYFTSVPKNFMELLTNQEAQQWVSGWRLNADSVLWGGHKVFMVKPEEPFQPVKEATQL [F65H], the “area with substrate CNLYFQS” value is 0.06, the “area with substrate GNLYFQS” value was determined as 0.094, the “area with substrate HNLYFQS” value was found to be 0.0605 and the “area with substrate INLYFQS” value turned out to be 0.064. Also, the “area with substrate KNLYFQS” value amounted to 0.0638, the “area with substrate NNLYFQS” value worked out at 0.0662, the “area with substrate PNLYFQS” value stood at 0.0619 and the “area with substrate QNLYFQS” value was 0.0581. Also, the “area with substrate TNLYFQS” value amounted to 0.0601 and the “area with substrate YNLYFQS” value stood at 0.0786.
Take MGESLFKGPRDYNPISSSICHLTNESDGHTTSLYGIGFGPFIITNKHLFRRNNETLVVQSLHGVFKVKDTTTLQQHLVDGRDMIIIRMPKDFPPFPQKLKFREPQREERICLVTTNFQTKSMSSMVSDTSCTFPSGDGIFWKHWIQTKDGQCGSPLVSTRDGFIVGIHSASNFTNTNNYFTSVPKNFMELLTNQEAQQWVSGWRLNADSVLWGGHKVFMVKPEEPFQPVKEATQL [G54E]: the “area with substrate CNLYFQS” value came out at 0.052, the “area with substrate HNLYFQS” value came out at 0.0477, the “area with substrate PNLYFQS” value worked out at 0.0671 and the “area with substrate QNLYFQS” value is 0.0635. The “area with substrate SNLYFQS” value was found to be 0.0564, the “area with substrate TNLYFQS” value was determined as 0.0654 and the “area with substrate YNLYFQS” value was 0.0551.
For MGESLFKGPRDYNPISSSICHLTNESDGHTTSLYGIGFGPFIITNKHLFRRNNGTLVVLSLHGVFKVKDTTTLQQHLVDGRDMIIIRMPKDFPPFPQKLKFREPQREERICLVTTNFQTKSMSSMVSDTSCTFPSGDGIFWKHWIQTKDGQCGSPLVSTRDGFIVGIHSASNFTNTNNYFTSVPKNFMELLTNQEAQQWVSGWRLNADSVLWGGHKVFMVKPEEPFQPVKEATQL [Q59L], the “area with substrate CNLYFQS” value is 0.0594, the “area with substrate FNLYFQS” value is 0.0385, the “area with substrate GNLYFQS” value worked out at 0.0749 and the “area with substrate HNLYFQS” value is 0.0565. The “area with substrate LNLYFQS” value worked out at 0.0723, the “area with substrate NNLYFQS” value amounted to 0.0866, the “area with substrate PNLYFQS” value is 0.0756 and the “area with substrate RNLYFQS” value is 0.0651. The “area with substrate SNLYFQS” value was found to be 0.0798 and the “area with substrate TNLYFQS” value turned out to be 0.0626.
